Measurements reported in paper PMC7494997 (2020).
Blank lines part the entries; values can stand above or below the binder they belong to.

Experiments:
[1] = target: T1, Human PSGL-1-Fc (human, UniProt Q14242 42-320); test: ELISA
T1 chain: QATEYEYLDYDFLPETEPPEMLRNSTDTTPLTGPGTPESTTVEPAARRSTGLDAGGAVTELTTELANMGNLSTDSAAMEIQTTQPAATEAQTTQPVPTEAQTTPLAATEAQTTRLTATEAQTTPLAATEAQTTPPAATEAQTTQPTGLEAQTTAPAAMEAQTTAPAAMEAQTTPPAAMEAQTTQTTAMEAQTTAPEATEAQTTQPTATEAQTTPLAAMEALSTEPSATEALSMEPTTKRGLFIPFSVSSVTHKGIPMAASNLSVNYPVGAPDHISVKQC

[2] = target: T2, hVSIG3-Fc (human, UniProt Q5DX21 23-241); test: ELISA
T2 chain: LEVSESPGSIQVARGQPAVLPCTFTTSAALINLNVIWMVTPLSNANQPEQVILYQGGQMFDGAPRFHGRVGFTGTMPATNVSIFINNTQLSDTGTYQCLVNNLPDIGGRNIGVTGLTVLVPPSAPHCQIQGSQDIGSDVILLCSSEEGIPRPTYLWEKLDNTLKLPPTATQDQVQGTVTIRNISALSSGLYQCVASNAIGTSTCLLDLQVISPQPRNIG

[3] = target: hVISTA-Fc (human, biotin (EZ-Link NHS Ester) in the competition ELISA (#3) and in the T cell binding assay); test: FACS; apparent, yeast-displayed scFv
[4] = target: T3, cyno VISTA-Fc (cynomolgus monkey); test: FACS; apparent, yeast-displayed scFv
T3 chain: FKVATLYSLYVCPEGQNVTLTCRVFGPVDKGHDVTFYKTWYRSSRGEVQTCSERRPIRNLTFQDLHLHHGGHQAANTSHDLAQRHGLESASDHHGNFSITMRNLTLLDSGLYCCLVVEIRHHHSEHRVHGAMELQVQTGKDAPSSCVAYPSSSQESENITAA

Kd [1]: 1.5 nM
B1: soluble hVISTA-Fc E125A (Fc fusion)
chain: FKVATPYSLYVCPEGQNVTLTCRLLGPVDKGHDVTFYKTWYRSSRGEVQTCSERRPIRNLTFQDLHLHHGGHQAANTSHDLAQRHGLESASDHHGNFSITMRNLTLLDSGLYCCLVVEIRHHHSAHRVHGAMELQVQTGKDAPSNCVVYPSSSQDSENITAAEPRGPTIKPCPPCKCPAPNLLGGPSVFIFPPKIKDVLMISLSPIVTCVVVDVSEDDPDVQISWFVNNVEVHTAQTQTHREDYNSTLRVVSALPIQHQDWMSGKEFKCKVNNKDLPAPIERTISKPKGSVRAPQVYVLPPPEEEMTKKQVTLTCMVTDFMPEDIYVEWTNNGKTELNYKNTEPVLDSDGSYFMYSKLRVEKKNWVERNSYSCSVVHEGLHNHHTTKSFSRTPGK

Kd [2]: 14 nM
B2: soluble hVISTA-Fc F62A (Fc fusion)
chain: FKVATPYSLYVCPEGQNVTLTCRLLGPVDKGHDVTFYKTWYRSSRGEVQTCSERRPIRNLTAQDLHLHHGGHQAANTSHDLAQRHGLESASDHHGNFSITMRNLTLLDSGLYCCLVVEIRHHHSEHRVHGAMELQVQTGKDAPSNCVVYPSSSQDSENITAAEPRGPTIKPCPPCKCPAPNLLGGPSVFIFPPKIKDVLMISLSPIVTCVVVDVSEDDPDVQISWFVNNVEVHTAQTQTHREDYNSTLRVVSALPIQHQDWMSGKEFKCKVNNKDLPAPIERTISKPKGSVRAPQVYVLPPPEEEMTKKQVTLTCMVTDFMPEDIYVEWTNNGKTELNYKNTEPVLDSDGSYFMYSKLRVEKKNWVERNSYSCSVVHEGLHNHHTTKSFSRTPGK

Kd [3]: 0.24 nM
Kd [4]: 0.36 nM
B3: Clone V9.7 (scFv)
scFv: [about 100 residues skipped]GGGTKVEIKGTTAASGSSGGSSSGAQVQLVQSGAEVKKPGSSVKVSCKASGGIFSSYAISWVRQAPGQGLEWMGGIIPIFGTANYAQKFQGRVTITADESTSTAYMELSSLRSEDTAVYYCARPVRSGPDYLQHWGQGTLVTVSS
